Screen size: about 310,000 compounds; about 14,000 (4.5%) showed an effect of 50% or more. Effects have a minus sign here. This is one part of the list.
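Further: peak tail current of the secondary pulse compared with the same well before compound.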

For the experiment, the target named is human ether-à-go-go-related gene (hERG) potassium channel (human, UniProt Q12809). Nature of the experiment: primary screen, population patch clamp on CHO cells stably expressing hERG.
human ether-à-go-go-related gene (hERG) potassium channel, sequence (Q12809 whole entry, looked up): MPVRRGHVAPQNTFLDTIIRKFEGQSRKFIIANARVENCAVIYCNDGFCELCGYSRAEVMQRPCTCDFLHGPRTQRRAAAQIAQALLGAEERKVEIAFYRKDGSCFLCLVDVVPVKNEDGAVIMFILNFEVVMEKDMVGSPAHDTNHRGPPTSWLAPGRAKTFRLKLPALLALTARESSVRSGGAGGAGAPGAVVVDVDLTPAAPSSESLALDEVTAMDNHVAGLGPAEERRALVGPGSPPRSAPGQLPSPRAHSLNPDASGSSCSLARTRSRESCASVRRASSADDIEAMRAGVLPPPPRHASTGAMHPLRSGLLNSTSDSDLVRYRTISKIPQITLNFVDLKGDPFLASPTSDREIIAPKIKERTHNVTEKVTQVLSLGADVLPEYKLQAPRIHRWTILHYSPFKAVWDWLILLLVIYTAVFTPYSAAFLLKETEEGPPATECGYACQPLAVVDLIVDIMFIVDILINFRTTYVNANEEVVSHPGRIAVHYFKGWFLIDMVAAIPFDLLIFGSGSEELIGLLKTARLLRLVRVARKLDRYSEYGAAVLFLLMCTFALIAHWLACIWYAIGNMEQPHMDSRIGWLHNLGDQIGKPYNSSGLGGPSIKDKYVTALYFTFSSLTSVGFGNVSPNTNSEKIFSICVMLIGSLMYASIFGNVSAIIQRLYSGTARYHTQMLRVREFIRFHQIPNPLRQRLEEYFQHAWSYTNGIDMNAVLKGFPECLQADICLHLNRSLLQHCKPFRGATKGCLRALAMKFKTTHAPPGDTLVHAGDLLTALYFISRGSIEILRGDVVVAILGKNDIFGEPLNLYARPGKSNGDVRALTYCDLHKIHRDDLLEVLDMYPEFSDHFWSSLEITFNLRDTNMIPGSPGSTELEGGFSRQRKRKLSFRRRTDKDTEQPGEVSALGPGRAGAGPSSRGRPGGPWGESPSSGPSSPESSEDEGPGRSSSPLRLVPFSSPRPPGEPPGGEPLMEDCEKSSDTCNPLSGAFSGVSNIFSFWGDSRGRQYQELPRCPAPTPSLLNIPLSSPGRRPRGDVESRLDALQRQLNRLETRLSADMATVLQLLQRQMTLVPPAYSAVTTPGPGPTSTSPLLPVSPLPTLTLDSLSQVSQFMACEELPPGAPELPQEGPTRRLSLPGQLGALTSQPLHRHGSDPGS
On to `COc1cccc(NC(=O)COC(=O)C2CC(=O)N(c3ccc(C)cc3)C2)c1` (stereo not shown), for which the “hERG current change (%, negative = inhibition) at 10uM” value is -9.93%.

For the compound `CCCC(=O)NC(C)c1nc2ccccc2n1CC` (stereo not shown), the “hERG current change (%, negative = inhibition) at 10uM” value is given as -1.82%.

`Cc1sc2nc(SCC(=O)N3CCOCC3)[nH]c(=O)c2c1C`: the “hERG current change (%, negative = inhibition) at 10uM” value is listed as 12.7%.

As for `COc1ccccc1CCC(=O)Nc1cc(S(=O)(=O)N2CCCCC2)ccc1N1CCN(C)CC1`, the “hERG current change (%, negative = inhibition) at 10uM” value is listed as -26.5%.

For the compound `COc1ccccc1-c1nnc(SCC(=O)NC2CC2)n1C`, the “hERG current change (%, negative = inhibition) at 10uM” value is on record as -13%.

Turning to `CC(C)(C)c1ccc(S(=O)(=O)N2CCN(c3ncccn3)CC2)cc1`, the “hERG current change (%, negative = inhibition) at 10uM” value is listed as 16%.

Take `Cc1cnc(=O)[nH]c1SCC(=O)Nc1nccs1`: the “hERG current change (%, negative = inhibition) at 10uM” value came out at 7.85%.

Regarding `COc1ccc(NC(=O)CCSc2cc(C)c3ccccc3n2)cc1`, the “hERG current change (%, negative = inhibition) at 10uM” value was -11.5%.

For the compound `O=C(Cn1ncc2c([nH]c3ccccc32)c1=O)Nc1ccc(CN2CCCCC2)cc1`, the “hERG current change (%, negative = inhibition) at 10uM” value was -65.8%.

For the compound `CN(CCCNC(=O)c1cn(C)c2ccc(S(=O)(=O)N(C)C)cc2c1=O)c1ccccc1`, the “hERG current change (%, negative = inhibition) at 10uM” value is listed as -29.4%.

In the case of `Nc1nc2sc3c(c2c(=O)s1)CCCC3`, the “hERG current change (%, negative = inhibition) at 10uM” value was found to be 0.874%.

Regarding `COCCNc1nnc(SC(C)C(=O)Nc2c(C)n(C)n(-c3ccccc3)c2=O)s1` (stereo not shown), the “hERG current change (%, negative = inhibition) at 10uM” value is given as 11.8%.

Turning to `CN1CCN(C(c2cccnc2)c2ccc3cccnc3c2O)CC1` (stereo not shown), the “hERG current change (%, negative = inhibition) at 10uM” value was -4.29%.

In the case of `CCN1CCN(C(=O)/C(C#N)=C/c2ccc(OC(F)F)cc2)CC1.Cl`, the “hERG current change (%, negative = inhibition) at 10uM” value is reported as -74.3%.

In the case of `CC1CCN(C(=O)CCNC(=O)c2ccccc2Cl)CC1`, the “hERG current change (%, negative = inhibition) at 10uM” value came to 8.92%.

Regarding `CC(=O)c1ccc(NC(=O)C(C)OC(=O)c2ccc(Br)o2)cc1` (stereo not shown), the “hERG current change (%, negative = inhibition) at 10uM” value is on record as -3.54%.

In the case of `Cc1ccc(C(=O)Cn2nnc(-c3ccccc3)n2)cc1`, the “hERG current change (%, negative = inhibition) at 10uM” value is -5.06%.

Consider `COc1cccc(C2=NOC(C(=O)Nc3cc(C)on3)C2)c1OC` (stereo not shown), for which the “hERG current change (%, negative = inhibition) at 10uM” value turned out to be 0.74%.

On to `CC(C(=O)N1CCN(c2ccccc2F)CC1)c1ccc([N+](=O)[O-])cc1` (stereo not shown), for which the “hERG current change (%, negative = inhibition) at 10uM” value is recorded as -68.4%.

Turning to `CCS(=O)(=O)N1CCC(C(=O)NCc2cccc(OC)c2)CC1`, the “hERG current change (%, negative = inhibition) at 10uM” value was found to be 5.22%.

Regarding `O=C(NC(=S)NC1CCCCC1)c1ccc(Cl)cc1`, the “hERG current change (%, negative = inhibition) at 10uM” value is listed as -11.6%.

For `CCN(Cc1ccccc1)C(=O)CCNS(=O)(=O)c1ccc2c(c1)CC(C)N2C(C)=O` (stereo not shown), the “hERG current change (%, negative = inhibition) at 10uM” value was -13.8%.

For the compound `CCC(C)NS(=O)(=O)c1ccc(NC(=O)Cc2ccc(OC)cc2)cc1` (stereo not shown), the “hERG current change (%, negative = inhibition) at 10uM” value came to 8.01%.

On to `CCN(C(=O)c1ccc(C(C)(C)C)cc1)c1nnc(Cn2nnc3ccccc32)s1`, for which the “hERG current change (%, negative = inhibition) at 10uM” value is on record as 18.6%.

Consider `CN1CCN(c2ncnc3c2cnn3C)CC1`, for which the “hERG current change (%, negative = inhibition) at 10uM” value worked out at 19.5%.

For the compound `Cc1c(C(=O)N2CCN(c3ccccc3)CC2)oc2c1C(=O)CC(C)(C)C2`, the “hERG current change (%, negative = inhibition) at 10uM” value is -13.6%.

With `CC1CCN(c2ccc(-c3cccs3)nn2)CC1`, the “hERG current change (%, negative = inhibition) at 10uM” value was found to be 10.1%.

Regarding `CCOc1cc(C(=O)O/N=C(\N)c2ccccn2)cc(OCC)c1OCC`, the “hERG current change (%, negative = inhibition) at 10uM” value is on record as -5.84%.

For the compound `CC1(c2nnc(-c3ccncc3)o2)CC(c2ccccc2)=NO1` (stereo not shown), the “hERG current change (%, negative = inhibition) at 10uM” value was determined as 12.9%.

As to `CS(=O)(=O)c1ccc(Cl)c(C(=O)OCC(=O)NC2CCCCCCC2)c1`, the “hERG current change (%, negative = inhibition) at 10uM” value is recorded as -27.9%.

In the case of `Cc1ccc(NC2=CC(=O)C(=O)c3ccccc32)c(C)c1`, the “hERG current change (%, negative = inhibition) at 10uM” value was found to be 16.7%.

On to `O=C(c1ccco1)c1coc2c1cc(O)c1ccccc12`, for which the “hERG current change (%, negative = inhibition) at 10uM” value came to 13.4%.

Turning to `CCOC(=O)C1CCN(c2nc3ccccc3nc2C(C#N)C(=O)OC(C)C)CC1` (stereo not shown), the “hERG current change (%, negative = inhibition) at 10uM” value is 17.4%.

With `Cc1ccc(S(=O)(=O)N2CCN(c3ccccc3)CC2)cc1`, the “hERG current change (%, negative = inhibition) at 10uM” value came to 13%.

In the case of `Cc1ccc(C)c(OCC(=O)N/N=C/c2ccsc2)c1`, the “hERG current change (%, negative = inhibition) at 10uM” value is reported as 3.35%.

With `COc1ccc(C(=O)NCC(=O)n2nc(C)cc2C)cc1OC`, the “hERG current change (%, negative = inhibition) at 10uM” value amounted to 18.6%.

For the compound `Cc1ccc(NC(=O)N2CCC(C(=O)NCc3ccc(F)cc3)CC2)cc1`, the “hERG current change (%, negative = inhibition) at 10uM” value is recorded as -52.2%.

For the compound `COc1c(OC)c(O)c2c(=O)cc(-c3c(O)cccc3O)oc2c1OC`, the “hERG current change (%, negative = inhibition) at 10uM” value was -1.14%.

As for `CCN(CC)S(=O)(=O)c1cccc(NC(=O)c2ccccc2Br)c1`, the “hERG current change (%, negative = inhibition) at 10uM” value is reported as -15.7%.

For the compound `COc1ccc(-c2nc3ccc(C(=O)NCC(OC)OC)cc3nc2-c2ccc(OC)cc2)cc1`, the “hERG current change (%, negative = inhibition) at 10uM” value was -1.79%.

Consider `Cc1cc(C)n(CC(O)COCc2ccccc2)n1` (stereo not shown), for which the “hERG current change (%, negative = inhibition) at 10uM” value worked out at 4.09%.

With `Cc1c(NC(=O)CCN2C(=O)c3ccccc3C2=O)c(=O)n(-c2ccccc2)n1C`, the “hERG current change (%, negative = inhibition) at 10uM” value is 1.71%.

For the compound `Nc1ccc(C(=O)Oc2ccc([N+](=O)[O-])cc2)c(O)c1`, the “hERG current change (%, negative = inhibition) at 10uM” value is reported as 15.3%.

These data come from PMC4336329 (PLoS ONE, 2015).
